Data on 67 sequences can be found in the supplement of paper PMC10126150.

The subject of this series is ATP. Description: switch fluorescence ratio, 500 uM ATP over buffer (Cy3 cluster intensity, sum of 5 cycles each) (fold (ratio)); higher = stronger signal-on switching upon ATP binding; sequences stand for … in TCGTCGGCAGCGTCAGATGTGTATAAGAGACAGTTTTTTTTTTTTTTTTTTTTTTTTT…TC. The conditions noted are these: aptamer strand: ATP DNA aptamer (quencher-CACCTGGGGGAGTATTGCGGAGGAAGG + anchor), 100 nM annealed; ATP concentration: 500 uM; one replicate. The essentials: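 Switching-strand clusters labelled with Cy3 on a modified Illumina MiSeq flow-cell were annealed to 100 nM quencher-labelled ATP aptamer, imaged in selection buffer, and re-imaged after 15 min with 500 uM ATP at 22 °C. This was done over five cycles with NaOH stripping and re-annealing in between. The fluorescence ratio is summed target-cycle over summed buffer-cycle Cy3 intensity per cluster, averaged per switch-domain sequence, excluding clusters outside 100-1000 RFU.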

Sequences with one replicate were seen in a single cluster, so their values are uncertain.
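Further: ATP exposure 15 min at 22 °C before imaging.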

For the sequence GCAACAGGGA, the switch fluorescence ratio amounted to 1.05.
Then ATGACAAGCA, with 1.1; and CGCGGAATTG, with 0.995.
For the sequence AATAACGCCG, the switch fluorescence ratio worked out at 1.03.
Then ATCAGAGAGT, with 0.989.
CACTCTTCAC: the switch fluorescence ratio worked out at 1.06.
On to TGCTCCAGTA, for which the switch fluorescence ratio was found to be 1.06.
Then CAACGTAAGA, with 1.28; and CTCTATTACT, with 1.09.
Then TGGTAGTTGG, with 0.989; and TTAGGGAGGA, with 0.978.
GGTTTCAG: the switch fluorescence ratio was determined as 1.01.
Then TGATGCGAGA, with 0.984; and ACAGTGGCAA, with 0.947; and CCGGGTATAG, with 1.55.
Then CTCGTTTTAT, with 0.991; and GTTTGAGAGG, with 0.961.
As for GTACCCTTGG, the switch fluorescence ratio is 1.04.
Regarding CAGGCAGGCC, the switch fluorescence ratio is 0.941.
On to GATTTCTCAA, for which the switch fluorescence ratio worked out at 0.995.
Then CGCTTGTGGG, with 1.04.
Then AAAGGATACC, with 1.13; and GAGGCAGGT, with 0.991; and CGTCTATTCT, with 0.976.
Then TTAGCATCGG, with 0.969; and TCGCCGAGCG, with 1.01.
For CTTTTATACA, the switch fluorescence ratio was 1.11.
Then GGTGACGGAT, with 0.977; and TTCGTCCATT, with 0.965; and CCTTTATGAG, with 1.
As to CATGGGTTT, the switch fluorescence ratio amounted to 1.02.
With GAGGCTGCGC, the switch fluorescence ratio was determined as 1.04.
TCTTTGAGCA: the switch fluorescence ratio is 0.993.
Then ATCGAGATGG, with 0.997.
On to GTTTTAGTCT, for which the switch fluorescence ratio came to 0.961.
Consider CATCGCCGTG, for which the switch fluorescence ratio came out at 0.993.
Then GATCTAGATA, with 1.04; and AGAAGACTCC, with 1.23; and GACTGGGCTG, with 0.969.
As to TATAGCCATC, the switch fluorescence ratio is 1.05.
Then CTAGGTCCAA, with 1.07.
Then CCCTGGGCAA, with 3.77.
Then GTCTCTGCAC, with 1.51; and TGACCCAGTA, with 1; and GATGATTGTT, with 1.
In the case of CTCGACCGGT, the switch fluorescence ratio stood at 1.01.
Then GCGCTTTGTC, with 1.01; and AGAGGGTTGA, with 1.03; and GGCAATTTTG, with 1.03.
Then CTGAACAAGG, with 1.02; and TACGTAATGG, with 1.48.
Then ACATGTAAAT, with 0.999; and GAATCTTGGG, with 0.96; and AGCGAATTTG, with 0.993.
For GCGGCGGGAA, the switch fluorescence ratio turned out to be 1.02.
Then CCGTCCCCTA, with 1.29; and AGACGGAGAG, with 1.04.
Then CCAGTAGAG, with 0.975; and ACACCAGGAC, with 1.25.
Turning to TGCCTAGAGT, the switch fluorescence ratio was 1.
As to AACGGGCGTG, the switch fluorescence ratio came to 1.02.
Turning to GGATCCCTTC, the switch fluorescence ratio worked out at 1.05.
Consider TAGGCCTAGG, for which the switch fluorescence ratio was determined as 0.941.
Then ATCGTTCACG, with 0.985.
As to CGTCCGAGAA, the switch fluorescence ratio stood at 1.41.
With TGTAACAACT, the switch fluorescence ratio stood at 0.964.
In the case of GGTACCTCGT, the switch fluorescence ratio was 1.03.
